Data taken from patent US4839344A, “Polypeptide compounds having growth hormone releasing activity” (Eastman Kodak Company, priority 1987, dated 1989).
“And” between values parts separate entries of the source, which are not always exact repeats. Equal entries are not always repeated. At least one peptide structure holds a part that was inferred or is arguable (an end, a ring closure or a residue). Square brackets hold non-standard residues; d marks the D form. Peptide text beside a SMILES is read from it. * marks the point of attachment. Dopa = N[C@@H](Cc1ccc(O)c(O)c1)C(=O)O; dDopa = N[C@H](Cc1ccc(O)c(O)c1)C(=O)O; d3Pal = N[C@H](Cc1cccnc1)C(=O)O; βAla = NCCC(=O)O; For = O=C*

System: growth hormone (GH) release
Experiment: In Vivo GH Release in Rats (serum GH by RIA)
Parameters: species or system immature female Sprague-Dawley rats
Conditions: rat serum, i.v., mean ± SEM, six rats
[1] = total dose 10 μg, sacrificed 10 minutes after final injection
[2] = total dose 20 (ng as printed), sacrificed 30 minutes after final injection
[3] = total dose 3 μg, sacrificed 10 minutes after final injection

Row | Compound | GH Released by Compound in Column A [1] | GH Released by Compound in Column A [2] [ng/mL] | also measured
1 | C[C@H](NC(=O)[C@H](N)Cc1ccc(O)c(O)c1)C(=O)N[C@@H](Cc1c[nH]cn1)C(=O)N[C@H](Cc1c[nH]c2ccccc12)C(=O)N[C@@H](C)C(=O)N[C@@H](Cc1c[nH]c2ccccc12)C(=O)N[C@H](Cc1ccccc1)C(=O)N[C@@H](CCCCN)C(N)=O [Compound 10351, DDopa--Ala--His--DTrp--Ala--Trp--DPhe--Lys--NH2] (H-[dDopa]AH[dW]AW[dF]K-NH2) | 13 ± 2 ng/mL |  | 
2 | CC(C)C[C@H](N)C(=O)N[C@@H](Cc1c[nH]cn1)C(=O)N[C@H](Cc1c[nH]c2ccccc12)C(=O)N[C@@H](C)C(=O)N[C@@H](Cc1c[nH]c2ccccc12)C(=O)N[C@H](Cc1ccccc1)C(=O)N[C@@H](CCCCN)C(N)=O [Compound 10276, Leu--His--DTrp--Ala--Trp--DPhe--Lys--NH2] (H-LH[dW]AW[dF]K-NH2) |  | 98 ± 29 | 
3 | C[C@H](NC(=O)[C@@H](Cc1c[nH]c2ccccc12)NC(=O)[C@H](Cc1c[nH]cn1)NC(=O)[C@@H](N)Cc1ccc(O)c(O)c1)C(=O)N[C@@H](Cc1c[nH]c2ccccc12)C(=O)N[C@H](Cc1ccccc1)C(=O)N[C@@H](CCCCN)C(N)=O [Compound 10814, Dopa--His--DTrp--Ala--Trp--DPhe--Lys--NH2] (H-[Dopa]H[dW]AW[dF]K-NH2) | 76 ± 20 ng/mL | 105 ± 10 | GH Released by Compound in Column A [3]: 67 ± 17 ng/mL
4 | C[C@H](NC(=O)[C@@H](Cc1c[nH]c2ccccc12)NC(=O)[C@@H](N)Cc1c[nH]cn1)C(=O)N[C@@H](Cc1c[nH]c2ccccc12)C(=O)N[C@H](Cc1ccccc1)C(=O)N[C@@H](CCCCN)C(N)=O [Compound 8938, His--DTrp--Ala--Trp--DPhe--Lys--NH2] (H-H[dW]AW[dF]K-NH2) | 70 ± 29 ng/mL |  | 
5 | C[C@H](N)C(=O)N[C@@H](Cc1c[nH]cn1)C(=O)N[C@H](Cc1c[nH]c2ccccc12)C(=O)N[C@@H](CO)C(=O)N[C@@H](Cc1c[nH]c2ccccc12)C(=O)N[C@H](Cc1ccccc1)C(=O)N[C@@H](CCCCN)C(N)=O [Compound 10973, Ala--His--DTrp--Ser--Trp--DPhe--Lys--NH2] (H-AH[dW]SW[dF]K-NH2) | 30 ± 7 ng/mL |  | 
6 | C[C@H](NC(=O)[C@@H](Cc1c[nH]c2ccccc12)NC(=O)[C@H](Cc1c[nH]cn1)NC(=O)[C@@H](N)CC(=O)O)C(=O)N[C@@H](Cc1c[nH]c2ccccc12)C(=O)N[C@H](Cc1ccccc1)C(=O)N[C@@H](CCCCN)C(N)=O [Compound 11012, Asp--His--DTrp--Ala--Trp--DPhe--Lys--NH2] (H-DH[dW]AW[dF]K-NH2) | 128 ± 48 ng/mL and 107 ± 26 ng/mL | 74 ± 15 | 
7 | C[C@H](N)C(=O)N[C@@H](Cc1c[nH]cn1)C(=O)N[C@H](Cc1c[nH]c2ccccc12)C(=O)N[C@@H](C)C(=O)N[C@@H](Cc1c[nH]c2ccccc12)C(=O)N[C@H](Cc1ccccc1)C(=O)N[C@@H](CCCCN)C(=O)NCC(=O)N[C@@H](Cc1ccc(O)cc1)C(N)=O [Compound 10391, Ala--His--DTrp--Ala--Trp--DPhe--Lys--Gly--Tyr--NH2] (H-AH[dW]AW[dF]KGY-NH2) |  | 47 ± 8 | 
8 | C[C@H](NC(=O)[C@@H](Cc1c[nH]c2ccccc12)NC(=O)[C@H](Cc1c[nH]cn1)NC(=O)[C@@H](N)CCCNC(=N)N)C(=O)N[C@@H](Cc1c[nH]c2ccccc12)C(=O)N[C@H](Cc1ccccc1)C(=O)N[C@@H](CCCCN)C(N)=O [Compound 11562, Arg--His--DTrp--Ala--Trp--DPhe--Lys--NH2] (H-RH[dW]AW[dF]K-NH2) | 87 ± 27 ng/mL |  | GH Released by Compound in Column A [3]: 50 ± 17 ng/mL
9 | C[C@H](NC(=O)[C@@H](N)Cc1ccc(O)c(O)c1)C(=O)N[C@@H](Cc1c[nH]cn1)C(=O)N[C@H](Cc1c[nH]c2ccccc12)C(=O)N[C@@H](C)C(=O)N[C@@H](Cc1c[nH]c2ccccc12)C(=O)N[C@H](Cc1ccccc1)C(=O)N[C@@H](CCCCN)C(N)=O [Compound 9868, DOPA--Ala--His--DTrp--Ala--Trp--DPhe--Lys--NH2] (H-[Dopa]AH[dW]AW[dF]K-NH2) | 123 ± 30 ng/mL |  | 
10 | C[C@H](N)C(=O)N[C@@H](Cc1c[nH]cn1)C(=O)N[C@H](Cc1cccnc1)C(=O)N[C@@H](C)C(=O)N[C@@H](Cc1c[nH]c2ccccc12)C(=O)N[C@H](Cc1ccccc1)C(=O)N[C@@H](CCCCN)C(N)=O [Compound 8588, Ala--His--DPal--Ala--Trp--DPhe--Lys--NH2] (H-AH[d3Pal]AW[dF]K-NH2) |  |  | GH Released by Compound in Column A (total dose 100 μg, sacrificed 10 minutes after final injection): 19 ± 5 ng/mL
11 | C[C@H](N)C(=O)N[C@@H](Cc1c[nH]cn1)C(=O)N[C@H](Cc1cn(C=O)c2ccccc12)C(=O)N[C@@H](C)C(=O)N[C@@H](Cc1c[nH]c2ccccc12)C(=O)N[C@H](Cc1ccccc1)C(=O)N[C@@H](CCCCN)C(N)=O [Compound 10855, Ala--His--(formyl)DTrp--Ala--Trp--DPhe--Lys--NH2] (H-AH[dW](For)AW[dF]K-NH2) | 19 ± 6 ng/mL |  | 
12 | C[C@H](N)C(=O)N[C@@H](Cc1c[nH]cn1)C(=O)N[C@H](Cc1c[nH]c2ccccc12)C(=O)N[C@@H](C)C(=O)N[C@@H](Cc1c[nH]c2ccccc12)C(=O)N[C@H](Cc1ccccc1)C(=O)N[C@@H](CCCCN)C(N)=O [Compound 0933, Ala--His--DTrp--Ala--Trp--DPhe--Lys--NH2] (H-AH[dW]AW[dF]K-NH2) |  | 86 ± 19 | 
13 | C[C@H](NC(=O)[C@@H](N)Cc1ccc(O)cc1)C(=O)N[C@@H](Cc1c[nH]cn1)C(=O)N[C@H](Cc1c[nH]c2ccccc12)C(=O)N[C@@H](C)C(=O)N[C@@H](Cc1c[nH]c2ccccc12)C(=O)N[C@H](Cc1ccccc1)C(=O)N[C@@H](CCCCN)C(N)=O [Compound 11553, Tyr--Ala--His--DTrp--Ala--Trp--DPhe--Lys--NH2] (H-YAH[dW]AW[dF]K-NH2) | 170 ± 38 ng/mL | 59 ± 12 | 
14 | C[C@H](NC(=O)[C@@H](N)Cc1ccccc1)C(=O)N[C@@H](Cc1c[nH]cn1)C(=O)N[C@H](Cc1c[nH]c2ccccc12)C(=O)N[C@@H](C)C(=O)N[C@@H](Cc1c[nH]c2ccccc12)C(=O)N[C@H](Cc1ccccc1)C(=O)N[C@@H](CCCCN)C(N)=O [Compound 10337, Phe--Ala--His--DTrp--Ala--Trp--DPhe--Lys--NH2] (H-FAH[dW]AW[dF]K-NH2) | 68 ± 11 ng/mL and 132 ± 45 ng/mL | 102 ± 9 | 
15 | C[C@H](NC(=O)[C@H](CCCCN)NC(=O)[C@@H](Cc1ccccc1)NC(=O)[C@H](Cc1c[nH]c2ccccc12)NC(=O)[C@H](C)NC(=O)[C@@H](Cc1c[nH]c2ccccc12)NC(=O)[C@@H](N)Cc1c[nH]cn1)C(=O)N[C@@H](Cc1ccc(O)cc1)C(N)=O [Compound 9036, His--DTrp--Ala--Trp--DPhe--Lys--Ala--Tyr--NH2] (H-H[dW]AW[dF]KAY-NH2) | 52 ± 7 ng/mL |  | 
16 | CSCC[C@H](N)C(=O)N[C@@H](Cc1c[nH]cn1)C(=O)N[C@H](Cc1c[nH]c2ccccc12)C(=O)N[C@@H](C)C(=O)N[C@@H](Cc1c[nH]c2ccccc12)C(=O)N[C@H](Cc1ccccc1)C(=O)N[C@@H](CCCCN)C(N)=O [Compound 10873, Met--His--DTrp--Ala--Trp--DPhe--Lys--NH2] (H-MH[dW]AW[dF]K-NH2) | 65 ± 18 ng/mL |  | GH Released by Compound in Column A (total dose 30 μg, sacrificed 10 minutes after final injection): 161 ± 47 ng/mL
17 | C[C@H](NC(=O)[C@@H](Cc1c[nH]c2ccccc12)NC(=O)[C@H](Cc1c[nH]cn1)NC(=O)CCN)C(=O)N[C@@H](Cc1c[nH]c2ccccc12)C(=O)N[C@H](Cc1ccccc1)C(=O)N[C@@H](CCCCN)C(N)=O [Compound 8937, (beta)Ala--His--DTrp--Ala--Trp--DPhe--Lys--NH2] (H-[βAla]H[dW]AW[dF]K-NH2) | 32 ± 4 ng/mL |  | 
18 | C[C@H](N)C(=O)N[C@@H](Cc1c[nH]cn1)C(=O)N[C@H](CCCNC(=N)N)C(=O)N[C@@H](C)C(=O)N[C@@H](Cc1c[nH]c2ccccc12)C(=O)N[C@H](Cc1ccccc1)C(=O)N[C@@H](CCCCN)C(N)=O [Compound 10265, Ala--His--DArg--Ala--Trp--DPhe--Lys--NH2] (H-AH[dR]AW[dF]K-NH2) | 14 ± 2 ng/mL |  | 
19 | C[C@H](NC(=O)[C@@H](Cc1c[nH]c2ccccc12)NC(=O)[C@H](Cc1c[nH]cn1)NC(=O)[C@@H](N)CC(=O)O)C(=O)N[C@@H](Cc1c[nH]c2ccccc12)C(=O)N[C@H](Cc1ccccc1)C(=O)N[C@@H](CCCCN)C(N)=O [Compound 10021, Asp--His--DTrp--Ala--Trp--DPhe--Lys--NH2] (H-DH[dW]AW[dF]K-NH2) |  | 135 ± 17 | 
20 | C[C@H](NC(=O)[C@@H](Cc1c[nH]c2ccccc12)NC(=O)[C@H](Cc1c[nH]cn1)NC(=O)[C@@H](N)CCCCN)C(=O)N[C@@H](Cc1c[nH]c2ccccc12)C(=O)N[C@H](Cc1ccccc1)C(=O)N[C@@H](CC(=O)O)C(N)=O [Compound 11561, Lys--His--DTrp--Ala--Trp--DPhe--Asp--NH2] (H-KH[dW]AW[dF]D-NH2) | 11 ± 1 ng/mL |  | GH Released by Compound in Column A [3]: 9 ± 1 ng/mL
21 | C[C@H](N)C(=O)N[C@@H](Cc1c[nH]cn1)C(=O)N[C@H](Cc1c[nH]c2ccccc12)C(=O)N[C@H](CCCCN)C(=O)N[C@@H](Cc1c[nH]c2ccccc12)C(=O)N[C@H](Cc1ccccc1)C(=O)N[C@@H](CCCCN)C(N)=O [Compound 9090, Ala--His--DTrp--DLys--Trp--DPhe--Lys--NH2] (H-AH[dW][dK]W[dF]K-NH2) | 14 ± 3 ng/mL |  | 
